The list shows a part of the results, in another mix than the full data. The list includes weakly bound sequences.
Legend:
Test in all cases: protein-binding microarray (PBM)
Conditions in all cases: PBM: ~300 nM protein, 6 mM HEPES pH 7.8, 80 mM KCl, 0.5 mM EDTA, 0.5 mM EGTA, 6% glycerol, 35 ng/ul poly-dIdC, 1% milk, 1 h, room temperature; Ap Aiptasia and Nv Nematostella (sea anemones) / Co Capsaspora / Aq Amphimedon (sponge) / Dm Drosophila / Hu human; RHD is the Rel homology domain; high values mean tight binding; most listed sequences are background and not binding sites; double strand, one strand shown
GST-Ap-NF-kB RHD = target: T1, GST-Ap-NF-kB RHD (UniProt A0A913YAJ5)
T1 sequence: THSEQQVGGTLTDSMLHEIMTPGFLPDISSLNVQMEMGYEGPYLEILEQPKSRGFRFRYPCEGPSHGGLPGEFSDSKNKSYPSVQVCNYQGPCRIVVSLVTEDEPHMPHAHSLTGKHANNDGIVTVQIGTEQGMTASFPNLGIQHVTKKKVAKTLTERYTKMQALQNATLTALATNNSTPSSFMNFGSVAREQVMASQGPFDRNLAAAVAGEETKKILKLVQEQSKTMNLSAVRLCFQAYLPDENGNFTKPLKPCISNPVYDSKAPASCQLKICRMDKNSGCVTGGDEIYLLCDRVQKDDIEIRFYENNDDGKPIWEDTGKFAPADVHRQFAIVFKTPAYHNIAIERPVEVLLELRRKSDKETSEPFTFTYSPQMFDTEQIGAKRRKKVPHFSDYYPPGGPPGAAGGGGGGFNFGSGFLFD

[1] = target: T2, GST-Nv-NF-kB (Cys allele) (UniProt E5G601)
T2 sequence: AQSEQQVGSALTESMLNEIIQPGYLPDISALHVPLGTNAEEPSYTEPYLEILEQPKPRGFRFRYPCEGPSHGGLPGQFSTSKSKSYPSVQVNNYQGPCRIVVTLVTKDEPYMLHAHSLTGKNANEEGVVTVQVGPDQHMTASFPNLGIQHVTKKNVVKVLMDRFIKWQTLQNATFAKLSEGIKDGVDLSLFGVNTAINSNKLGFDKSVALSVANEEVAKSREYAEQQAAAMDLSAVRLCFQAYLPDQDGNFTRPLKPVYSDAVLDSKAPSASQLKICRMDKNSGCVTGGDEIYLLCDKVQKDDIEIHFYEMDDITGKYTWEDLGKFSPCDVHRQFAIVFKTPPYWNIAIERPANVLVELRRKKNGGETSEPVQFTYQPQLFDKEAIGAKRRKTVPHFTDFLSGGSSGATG

GST-Co-NF-kB = target: T3, GST-Co-NF-kB (UniProt F1ARL5)
T3 sequence: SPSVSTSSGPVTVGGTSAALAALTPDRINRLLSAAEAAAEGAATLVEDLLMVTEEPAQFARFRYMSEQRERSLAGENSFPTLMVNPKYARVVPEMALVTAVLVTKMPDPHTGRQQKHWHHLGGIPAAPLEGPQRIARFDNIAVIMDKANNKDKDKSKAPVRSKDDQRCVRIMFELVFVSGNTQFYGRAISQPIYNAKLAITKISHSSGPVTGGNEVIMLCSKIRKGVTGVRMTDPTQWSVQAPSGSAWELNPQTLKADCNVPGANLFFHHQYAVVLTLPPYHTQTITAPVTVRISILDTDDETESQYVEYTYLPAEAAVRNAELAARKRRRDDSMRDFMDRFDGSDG

GST-Dm-Relish = target: T4, GST-Dm-Relish (UniProt Q94527)
T4 sequence: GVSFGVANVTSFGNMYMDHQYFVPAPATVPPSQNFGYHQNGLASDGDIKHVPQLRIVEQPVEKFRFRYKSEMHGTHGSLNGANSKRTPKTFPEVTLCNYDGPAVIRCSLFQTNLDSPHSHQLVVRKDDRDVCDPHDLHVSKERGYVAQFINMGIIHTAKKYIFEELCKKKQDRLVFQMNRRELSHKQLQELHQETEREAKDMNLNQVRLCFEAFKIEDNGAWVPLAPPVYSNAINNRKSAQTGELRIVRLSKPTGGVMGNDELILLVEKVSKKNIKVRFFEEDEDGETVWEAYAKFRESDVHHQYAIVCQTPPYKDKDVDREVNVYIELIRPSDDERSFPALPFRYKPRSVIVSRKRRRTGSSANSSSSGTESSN

GST-Aq-NF-kB = target: T5, GST-Aq-NF-kB (UniProt A9Y5G7)
T5 sequence: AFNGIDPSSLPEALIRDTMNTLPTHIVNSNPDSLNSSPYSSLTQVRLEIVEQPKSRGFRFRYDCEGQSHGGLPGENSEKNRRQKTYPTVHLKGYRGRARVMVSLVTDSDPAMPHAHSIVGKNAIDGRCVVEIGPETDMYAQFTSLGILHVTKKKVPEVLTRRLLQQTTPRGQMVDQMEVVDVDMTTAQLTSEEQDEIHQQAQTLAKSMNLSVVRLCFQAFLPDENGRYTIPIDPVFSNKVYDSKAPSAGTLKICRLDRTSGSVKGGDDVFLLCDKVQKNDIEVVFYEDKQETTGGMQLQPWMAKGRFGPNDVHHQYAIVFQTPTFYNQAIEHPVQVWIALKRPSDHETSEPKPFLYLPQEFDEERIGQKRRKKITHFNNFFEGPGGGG

| Sequence | binding signal (GST-Ap-NF-kB RHD) [z-score] | binding signal [1] [z-score] | binding signal (GST-Co-NF-kB) [z-score] | binding signal (GST-Dm-Relish) [z-score] | binding signal (GST-Aq-NF-kB) [z-score] |
| --- | --- | --- | --- | --- | --- |
| CCGATTAACATCAACATAGAGTATGATGTTAATCGGGTCTTGATTCGCTTGACGCTGCTG | -0.417 | -0.365 | 0.204 | -0.751 | -0.601 |
| CCGATTAACATCACACAAGAGAATGATGTTAATCGGGTCTTGATTCGCTTGACGCTGCTG | 0.353 | -0.186 | 0.418 | -0.0055 | -0.219 |
| CCGATTAACATCATAGCTAGGCTTGATGTTAATCGGGTCTTGATTCGCTTGACGCTGCTG | -1.05 | -1.08 | -0.952 | -1.19 | -0.666 |
| CCGATTAACATCAGATGATATCATGATGTTAATCGGGTCTTGATTCGCTTGACGCTGCTG | -0.767 | -1.09 | -1.7 | -0.956 | -0.356 |
| CCGATTAACATCAGGATCCAAGGTGATGTTAATCGGGTCTTGATTCGCTTGACGCTGCTG | 0.315 | -0.441 | 0.185 | -0.0594 | 0.374 |
| CCGATTAACATCAGTCTTAGTCGTGATGTTAATCGGGTCTTGATTCGCTTGACGCTGCTG | -0.894 | -0.411 | 0.113 | -0.337 | -0.597 |
| CCGATTAACATCACGCCCGAGAATGATGTTAATCGGGTCTTGATTCGCTTGACGCTGCTG | 0.625 | -0.252 | -0.0368 | -0.274 | 0.0521 |
| CCGATTAACATCACGCGAGCAAGTGATGTTAATCGGGTCTTGATTCGCTTGACGCTGCTG | -0.253 | -0.333 | -0.886 | 0.25 | -0.217 |
| CCGATTAACATCACATCTAGGAGTGATGTTAATCGGGTCTTGATTCGCTTGACGCTGCTG | -1.09 | -0.439 | -0.777 | 0.333 | -0.605 |
| CCGATTAACATCAATGGATTTTCTGATGTTAATCGGGTCTTGATTCGCTTGACGCTGCTG | 0.305 | -0.761 | -0.0539 | 0.505 | 0.303 |
| CCGATTAACATCAGGAATTCACATGATGTTAATCGGGTCTTGATTCGCTTGACGCTGCTG | 0.259 | 0.217 | 0.597 | 5.7 | 0.66 |
| CCGATTAACATCATACGAAACTGTGATGTTAATCGGGTCTTGATTCGCTTGACGCTGCTG | -0.0112 | -1.26 | -0.0714 | -0.198 | -0.421 |
| CCGATTAACATCAATTATTCAGCTGATGTTAATCGGGTCTTGATTCGCTTGACGCTGCTG | -0.175 | -0.23 | -0.562 | -0.654 | -0.323 |
| CCGATTAACATCACTACACGGCGTGATGTTAATCGGGTCTTGATTCGCTTGACGCTGCTG | 0.121 | -0.799 | 0.0749 | 0.179 | -0.262 |
| CCGATTAACATCAGGGAGATCCCTGATGTTAATCGGGTCTTGATTCGCTTGACGCTGCTG | 7.41 | 8.14 | 1.54 | 7.36 | 8.85 |
| CCGATTAACATCAACGCCCTGCCTGATGTTAATCGGGTCTTGATTCGCTTGACGCTGCTG | 0.127 | -0.482 | 0.106 | -0.334 | -0.294 |
| CCGATTAACATCATCGATTCGTATGATGTTAATCGGGTCTTGATTCGCTTGACGCTGCTG | -1.15 | -0.249 | -0.571 | -0.913 | -0.56 |
| CCGATTAACATCAGACTGCATCTTGATGTTAATCGGGTCTTGATTCGCTTGACGCTGCTG | -0.541 | -0.0279 | -0.47 | -0.607 | -0.39 |
| CCGATTAACATCAAAGAGATACGTGATGTTAATCGGGTCTTGATTCGCTTGACGCTGCTG | -0.742 | -0.0785 | 0.341 | -0.342 | -0.529 |
| CCGATTAACATCACTTGCTTGCGTGATGTTAATCGGGTCTTGATTCGCTTGACGCTGCTG | -0.451 | -0.254 | -0.563 | 0.215 | -0.653 |
| CCGATTAACATCAATTCAGAAAGTGATGTTAATCGGGTCTTGATTCGCTTGACGCTGCTG | -0.272 | -0.0297 | -0.261 | -0.147 | -0.53 |
| CCGATTAACATCAGTAGGTGAAGTGATGTTAATCGGGTCTTGATTCGCTTGACGCTGCTG | 0.456 | 0.452 | 1.02 | 0.093 | 0.0881 |
| CCGATTAACATCAGAGAGTGTATTGATGTTAATCGGGTCTTGATTCGCTTGACGCTGCTG | -0.158 | 0.633 | 0.639 | -0.489 | -0.373 |
| CCGATTAACATCAAGCAAGGGCGTGATGTTAATCGGGTCTTGATTCGCTTGACGCTGCTG | -0.0469 | -0.0972 | -0.202 | -0.416 | -0.251 |
| CCGATTAACATCAAGCGTACATCTGATGTTAATCGGGTCTTGATTCGCTTGACGCTGCTG | -0.685 | -0.125 | 0.123 | -0.0201 | -0.241 |
| CCGATTAACATCAAGGAAAATACTGATGTTAATCGGGTCTTGATTCGCTTGACGCTGCTG | -0.176 | -0.194 | 0.713 | 1.2 | 0.593 |
| CCGATTAACATCACCCACAGCCGTGATGTTAATCGGGTCTTGATTCGCTTGACGCTGCTG | 0.31 | -0.13 | 0.925 | 0.997 | 0.397 |

Reference: article PMC5700166
